# Test results taken from PubChem BioAssay AID686979 (National Center for Advancing Translational Sciences (NCATS), 2013).
# Among all 420,000 compounds or so, about 50,000 (12%) were called active. Inconclusive means that the source gave no clear call. Such entries were picked first, then a sample of the others. Calls come from the whole dose curve; as a rule, active = well fitted inhibition curve with a large enough effect; inconclusive = small, poorly fitted or top-dose-only effect; inactive = flat fitted curve, though single readings scatter. Potencies of inconclusive entries are left out as doubtful fits.
# Experiment: qHTS for Inhibitors of human tyrosyl-DNA phosphodiesterase 1 (TDP1): qHTS in cells in presence of CPT; note: nearly all actives have a fitted effect of over 55% in size
# Details: chicken DT40 Tdp1-/-;hTDP1 cells + 20 nM CPT, ATP luminescence, 48 h; activity change, negative = growth inhibition: at 46.2 µM (top of the series) unless noted
# Method in brief: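 Chicken DT40 Tdp1-/- cells stably complemented with human TDP1 were seeded at 400 cells/well in medium containing 20 nM camptothecin, exposed to pin-transferred compounds, and grown at 37 °C for at least 48 hr. Viability was read as ATP luminescence.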
# % is set by controls: 0 for no effect and ±100 for the full control effect; potency is the fitted concentration of half-maximal effect; tags give direction and shape of the fitted curve.
Compound,Potency,"activity change, negative = growth inhibition"
CCC(=O)N1CCc2cc(S(=O)(=O)NC(CC(C)C)C(=O)NCCc3ccccc3)ccc21 (centres undefined),"inconclusive [inhibitor, single point]",–
CC12CCC(=O)N1C(C(=O)Nc1cc(S(=O)(=O)N3CCCCCC3)ccc1OCC(F)(F)F)CS2 (centres undefined),"inconclusive [inhibitor, single point]",–
COC(=O)N/N=C/c1cc(Cl)c(OCc2ccccc2F)c(OC)c1,"inconclusive [inhibitor, partial curve]",–
COc1ccc(CCNC(=O)C(=O)NCC(c2ccco2)S(=O)(=O)c2cccs2)cc1OC (centres undefined),"inconclusive [inhibitor, single point]",–
Cc1cc(C(=O)Oc2ccccc2C(=O)O)c(C)o1,"inconclusive [inhibitor, partial curve, poor fit]",–
COc1ccc(N=C2SC(CC(=O)Nc3ccccc3OC)C(=O)N2Cc2ccco2)cc1 (centres undefined),"inconclusive [inhibitor, single point]",–
COc1ccc(-c2csc(NC(=S)NC(=O)c3ccc4ccccc4c3)n2)cc1OC,"inconclusive [inhibitor, partial curve]",–
COC(=O)C1=C(C)N(C)C(C)=C(C(=O)OC)C1c1ccccc1C,"inconclusive [inhibitor, single point]",–
CC(=O)Nc1ccccc1OCCCN1CCC(C(O)(c2ccccc2)c2ccccc2)CC1,"inconclusive [inhibitor, single point]",–
COc1ccccc1CCC(=O)Nc1cc(S(=O)(=O)N2CCCCC2)ccc1N1CCN(C)CC1,"inconclusive [inhibitor, single point]",–
CCc1ccc(C(C)NC(=O)c2cc(C)oc2C)cc1 (centres undefined),active: 20.6 µM,–
CCC(Oc1ccc(Cl)cc1)C(=O)N1CC(=O)Nc2ccccc21 (centres undefined),"inconclusive [inhibitor, single point]",–
O=C(COc1ccccc1-c1nc(-c2ccccc2)no1)Nc1cccc([N+](=O)[O-])c1,active: 2.59 µM,–
COc1cc2c(cc1OC)C(c1ccccc1)N(S(C)(=O)=O)CC2 (centres undefined),inactive,–
CN(C)C(=O)c1ccc(-c2nccc(-n3ccnc3)n2)cc1,–,inconclusive: -35.9% [inhibitor]
NC(=S)N/N=C/c1ncc(C(F)(F)F)cc1Cl,active: 0.411 µM,–
CCCS(=O)(=O)NCc1ccc2c(c1)cc(C)n2C,inactive,–
C=CCNc1nc(N2CCCC2)nc2ccccc12,active: 16.4 µM,–
CCCNS(=O)(=O)c1ccc(CCC(=O)N2CCN(c3ccc(F)cc3)CC2)cc1,"inconclusive [inhibitor, single point]",–
Cn1nc(C(=O)NNC(=O)Cc2ccc(S(=O)(=O)N3CCOCC3)s2)c2ccccc2c1=O,inactive,–
CN(C)CCCNc1nc2cc(-c3cnn(Cc4ccccc4)c3)sc2c(=O)n1C,"inconclusive [inhibitor, single point]",–
O=C(c1nc(-c2ccc(Cl)cc2)n2c1CCCCC2)N1CCN(c2ccccc2)CC1,"inconclusive [inhibitor, single point]",–
Cn1c(SCc2cc(=O)n3cc(Br)ccc3n2)nnc1C1COc2ccccc2O1 (centres undefined),inactive,–

Compound,Potency,"activity change, negative = growth inhibition"
CCN1C(=O)/C(=C\N(C)C)S/C1=N\S(=O)(=O)c1ccc(C)cc1,inactive,–
CCc1ccccc1N(C(=O)c1snc(C(N)=O)c1N)C(C(=O)NCC1CCCO1)c1ccc(OC)c(OC)c1 (centres undefined),active: 16.4 µM,–
Cc1ccc(C)c(Cn2nnc3c(=O)[nH]c(C4CCCN(S(=O)(=O)Cc5ccccc5)C4)nc32)c1 (centres undefined),"inconclusive [inhibitor, single point]",–
CCOc1ccc(CCN2CN(C3CCCCC3)CNC2=S)cc1OCC,"inconclusive [inhibitor, single point]",–
Cc1cc(/C=C2/SC(=O)N(CC(=O)OC(C)C)C2=O)c(C)n1C,"inconclusive [inhibitor, partial curve]",–
CC(=O)c1c(C)oc2ccc(OCc3ccccc3)cc12,inactive,–
O=C(CCCN1C(=O)c2cccc3cccc(c23)C1=O)N1CCN(c2ccccn2)CC1,"inconclusive [inhibitor, single point]",–
Cc1ccc(NC(=S)NCc2ccccc2)c(C)c1,active: 23.1 µM,–
CCOc1ccc(C(=O)Nc2ccc(NC(=O)c3ccco3)c(Cl)c2)cc1Br,"inconclusive [inhibitor, single point]",–
COc1ccc(-n2c(=O)c(CCC(=O)N3CCN(c4ccccc4O)CC3)nc3ccccc32)cc1,active: 25.9 µM,–
C#Cc1cccc(Nc2ncnc3cc(OC)c(OC)cc23)c1,"inconclusive [inhibitor, single point]",–
CCCOc1ccc(N2C(=O)CC(NCC#N)C2=O)cc1 (centres undefined),inactive,–
O=C(Nc1ccc2c(c1)[nH]c(=O)c1ccccc12)C(F)(F)F,"inconclusive [inhibitor, full curve, poor fit]",–
O=c1c2c(nc3n1CCCCC3)-c1ccccc1CC21CCCCC1,"inconclusive [inhibitor, single point]",–
C/C(=N\NC(=O)c1nn(C)c(C)c1Br)c1cccc(NC(=O)c2ccc(F)cc2)c1,"inconclusive [inhibitor, single point]",–
CC(Oc1ccccc1)C(=O)Nc1nnc2n1CCS2 (centres undefined),inactive,–
Cc1ccc(C2(O)C(=O)c3ccccc3C2=O)c(O)c1C,–,inconclusive: -32.2% [inhibitor]
CCN(CC)c1ccc(NC(=O)/C=C\c2ccccc2Cl)cc1,"inconclusive [inhibitor, single point]",–
C#Cc1ccc([C@H]2C=C(C(=O)OCC=C)O[C@@H](OCC)[C@@H]2CCCO)cc1,"inconclusive [inhibitor, full curve]",–
CCOC(=O)C(=CNc1ncccc1C)C(=O)OCC,inactive,–
Cc1ccc(C)c(S(=O)(=O)N2CCN(C(C(=O)Nc3ccc(F)cc3)c3ccccc3)CC2)c1 (centres undefined),"inconclusive [inhibitor, single point]",–
COc1ccccc1-c1cnc(C(O)c2ccc(C)c(F)c2)[nH]1 (centres undefined),"inconclusive [inhibitor, single point]",–
COc1ccc(CC(=O)N/N=C(\C)CC(=O)Nc2ccc(N(C)C)cc2)cc1,–,inconclusive: -30.3% [inhibitor]

Compound,Potency,"activity change, negative = growth inhibition"
Cc1c(O)c2c(c(C(=O)/C=C/c3ccccc3)c1O)OC(C)(C)C=C2,"inconclusive [inhibitor, single point]",–
COc1ccc(CNC(=O)c2ccccc2NC(=O)C2=C(C)OCCS2)cc1,"inconclusive [inhibitor, single point]",–
CCOC(=O)C1CCCN(c2cc(C)nc3cc(-c4ccc(F)cc4)nn23)C1 (centres undefined),active: 23.1 µM,–
COc1cccc(S(=O)(=O)Nc2cccc(C(=O)N3CCCC3)c2)c1,"inconclusive [inhibitor, single point]",–
Cc1ccc(S(=O)(=O)n2ccc3c2CCCC3=O)cc1,"inconclusive [inhibitor, single point]",–
CC1(c2ccc(Cl)cc2)NC(=O)N(CC(=O)N2CCN(C(=O)c3cccs3)CC2)C1=O (centres undefined),inactive,–
COc1cc(-c2nc3nc(C)cc(C)n3c2Nc2ccc(Cl)cc2)ccc1O,"inconclusive [inhibitor, single point]",–
C#Cc1ccc([C@H]2C=C(C(=O)NCc3ccccc3)O[C@@H](OCC)[C@@H]2CCCO)cc1,"inconclusive [inhibitor, single point]",–
O/N=C/c1cn(-c2ccccc2)nn1,"inconclusive [inhibitor, single point]",–
Cc1ccsc1C(=O)C1CCCN(Cc2cc(F)ccc2-n2cccn2)C1 (centres undefined),active: 9.2 µM,–
O=C1c2ccccc2N2C(=O)c3ccccc3[C@H]2N1c1ccccc1,active: 16.4 µM,–
COc1ccc(Cn2c(C(=O)O)c(CNCc3ccc(C)o3)c3ccc(C)cc32)cc1,"inconclusive [inhibitor, single point]",–
CCOC(=O)Nc1ccc2c(c1)Nc1ccccc1S2,active: 23.1 µM,–
Cc1nn(CCCC(=O)N2CCN(c3ccc(F)cc3)CC2)c(C)c1[N+](=O)[O-],active: 16.4 µM,–
COCC(=O)Nc1ccc(N2CCOCC2)c(S(=O)(=O)Nc2ccc(OC)cc2)c1,"inconclusive [inhibitor, single point]",–
COc1ccc(C2C(C#N)=C(N)N(c3ccccc3)C3=C2C(=O)CCC3)cc1Cn1cc([N+](=O)[O-])cn1 (centres undefined),"inconclusive [inhibitor, single point]",–
COc1ccc2cc(C(=O)C3CCCN(C(=O)CCc4ccccn4)C3)ccc2c1 (centres undefined),"inconclusive [inhibitor, single point]",–
FC(F)(F)c1cccc(NC(=S)N2CCN(c3cccc(C(F)(F)F)c3)CC2)c1,"inconclusive [inhibitor, single point]",–
COc1ccc(C(=O)Nc2ccc(-c3nnc4n3CCCCC4)cc2)cc1OC,active: 13 µM,–
COc1ccc(S(=O)(=O)NCC2CCC(C(=O)NCC(OC)OC)CC2)cc1 (centres undefined),inactive,–
C[C@@H]1CN([C@H](C)CO)C(=O)CCCn2cc(nn2)CO[C@H]1CN(C)S(=O)(=O)c1ccc(Oc2ccccc2)cc1,inactive,–
CCCc1cc(=O)[nH]c(SCc2ccc(F)cc2)n1,inactive,–
COc1ccc(-c2cc(=O)oc3cc(OCC(=O)N[C@@H](Cc4c[nH]c5ccccc45)C(=O)O)ccc23)cc1,inactive,–
